Test results reported in patent US20130336951A1 (CENTRE FOR ADDICTION AND MENTAL HEALTH, published 2013).

Tests used:
[1] = molecular target: [35S]-GAPDH probe (in vitro translated, [35S]-methionine labelled GAPDH) (Homo sapiens, UniProt P04406 1-335, limits assumed, [35S]-methionine labelled); experiment: in vitro binding assay (blot overlay), FIG. 5C
[2] = molecular target: Apoptosis inducing factor (AIF) from rat hippocampal extracts (rat, UniProt Q9JM53 102-612, limits assumed); experiment: GST pull-down, Western blot for AIF
Chain of UniProt Q9JM53 (Q9JM53 102-612 limits assumed): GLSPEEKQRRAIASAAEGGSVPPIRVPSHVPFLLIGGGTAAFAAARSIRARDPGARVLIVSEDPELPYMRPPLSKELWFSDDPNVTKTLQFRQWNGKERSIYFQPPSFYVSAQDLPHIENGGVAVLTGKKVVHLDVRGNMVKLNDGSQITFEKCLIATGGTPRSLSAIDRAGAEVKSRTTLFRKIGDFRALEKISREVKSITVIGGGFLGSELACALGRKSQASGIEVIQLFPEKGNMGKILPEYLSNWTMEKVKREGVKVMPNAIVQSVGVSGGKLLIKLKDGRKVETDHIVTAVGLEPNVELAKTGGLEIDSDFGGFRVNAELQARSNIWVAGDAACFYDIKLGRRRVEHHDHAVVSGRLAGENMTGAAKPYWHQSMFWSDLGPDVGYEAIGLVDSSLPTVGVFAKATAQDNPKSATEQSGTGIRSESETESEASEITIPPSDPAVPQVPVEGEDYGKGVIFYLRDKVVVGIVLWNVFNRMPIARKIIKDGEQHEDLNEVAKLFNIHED

binding result [1]: no binding
binding result [2]: no binding
B1: GST alone (other)
chain: not shown
notes: Negative control; also called GST peptide
